88 sequences from the supplement of paper PMC11417369 can be followed below.

± gives the standard deviation of the averaged measurements. The list shows a part of the results.

This test concerns PfAP2-LT AP2 domain (GST-tagged). Briefly: gcPBM binding intensity (ln(normalized median fluorescence intensity)); higher = stronger DNA binding. The essentials: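 For binding intensity, the highest Masliner-normalised natural-log median intensity across replicate spots of either probe orientation was taken. Protein bound to the array was stained with Alexa488 anti-GST antibody and scanned at 488 nm. The protein, GST-tagged P. falciparum DNA-binding domains from E. coli at about 25 μg on average, had been applied for 1 h to an Agilent 4 × 180k array of primer-extended double-stranded 36-bp intergenic genomic probes and negative controls.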
Turning to “GAAATAAATATAATATATATATATATATATATATGT [TGCATGCA_negctrl_site216]”, the “gcPBM binding intensity (ln)” value came out at 9.06 ± 0.28.
For “GGTATACACAGACATGCATGTAATTATATATAGGGA [TGCATGCA_site83]” the value was 9.37 ± 0.54.
The same measure for “ATATAAATATATTGCACACACAATTATTATTATTAT [CACACA_site7147]”: 9.24 ± 0.31; for “AAGGATGATACAACTTGTACATATTTGCTTAATATA [XGTACX_site764]”: 8.79 ± 0.53; for “CATGTGCATATTAAATGTACATATATACATATATAC [XGTACX_site857]”: 8.96 ± 0.29.
The same measure for “ATATAGGTATTTAATACACACAAAACTTTCATTCCA [CACACA_site7627]”: 8.91 ± 0.41; for “AAAGCTAATATTATATGTACTTATATATTTATATAT [XGTACX_site4474]”: 8.81 ± 0.42; for “AAATAAATGAAACACACACACACAAAAAAAAAAAAC [CACACA_site2625]”: 10.2 ± 0.28.
“ATATAAATCTACACCGCACACAAAAACAACAAATAT [CACACA_site2506]”: the “gcPBM binding intensity (ln)” value is 9.53 ± 0.3.
The same measure for “TATAATGTTAAATAATGTACATATTTTTTTTTTTTT [XGTACX_site4721]”: 8.45 ± 0.38; for “AACAAATTTTTTTTTCCTTTTTTTTTTTTACTTCAT [CACACA_negctrl_site1214]”: 8.52 ± 0.61; for “ATAAACAAAGTTAAATGTACAAAGGGGTAAAAAAAA [XGTACX_site83]”: 8.91 ± 0.57.
The same measure for “ACACAATTGAAATAGTGTACAAAATGTTGTTACATA [XGTACX_site8671]”: 8.99 ± 0.52; for “TTTTTTTTTCGGAAAAGTACAAAACTTTTTTATAAT [XGTACX_site4670]”: 8.13 ± 0.35.
The same measure for “AAATAAATAATATGTAAACACACAAAAAATAAAAAT [CACACA_site8307]”: 9.24 ± 0.52; for “TTATTAACCAAACGCACATGCAAAATATATTATATA [TGCATGCA_site915]”: 8.71 ± 0.45.
“AGACTTTGTACAAACACACACATGAGCACAATATTA [CACACA_site6755]”: the “gcPBM binding intensity (ln)” value stood at 9.41 ± 0.36.
The same measure for “TAAAAAGTATATAAGAGTACACATATTTATAAATAT [XGTACX_site3084]”: 8.79 ± 0.45; for “TATATATCAATATGCACACACAAGAAGTAATTATAA [CACACA_site7487]”: 9.39 ± 0.38; for “AACAAAATTGAAGGAACACACATACAGATATATATA [CACACA_site4264]”: 9.22 ± 0.4.
As for “ATAGAAAAAATATACACACACTTATTAAATAAAAAT [CACACA_site7540]”, the “gcPBM binding intensity (ln)” value was found to be 9.26 ± 0.37.
The same measure for “TAATAATTAATTAATATAATATTTTTTCATAATTAT [XGTACX_negctrl_site602]”: 8.4 ± 0.39.
For “GTTTTTAAGAAAAACACACACTCCTGTTATTTTATA [CACACA_site3696]” the value was 8.85 ± 0.42.
Consider “TTTTTTTTTTTCGGGGGTACTAATATATTATTAATA [XGTACX_site7809]”, for which the “gcPBM binding intensity (ln)” value is 9.37 ± 0.11.
The same measure for “ATATATATAACATATACACACGTTCATATATATATA [CACACA_site4416]”: 9.05 ± 0.3.
Regarding “TTACAAGTAAAAGGTACACACATTATATATACAAAT [CACACA_site8290]”, the “gcPBM binding intensity (ln)” value turned out to be 9.16 ± 0.44.
The same measure for “TAATTTTTATTTTATTTTATTTTTTTTTTTTTTATT [CACACA_negctrl_site1671]”: 8.36 ± 0.61; for “TCACATGGAAAAAAGTGTACATAATTATGTATAAAT [XGTACX_site2827]”: 8.97 ± 0.38; for “TATAAAAAATAAAAAGTTTAATGAATATTTCTTTTA [TGCATGCA_negctrl_site379]”: 8.11 ± 0.66.
For “AATACAATTTCTAGCACACAAAATATTATTATAATT [CACACA_site3223]” the value was 8.86 ± 0.45; for “AAAAAAAAAAAAATCACACACAATATGAATTTATAG [CACACA_site601]”, 8.97 ± 0.46.
For “TATAGAAGCGTTCACACACACACATACATACCCATA [CACACA_site4915]” the value was 9.9 ± 0.43.
As for “AAAAAACAATCTCATACACACTAGGGATTAATTATT [CACACA_site5051]”, the “gcPBM binding intensity (ln)” value stood at 8.89 ± 0.41.
The same measure for “TCCCTAAAAAATGATAAATGGAGACAATTCCGACAA [GTGCAC_negctrl_site209]”: 8.62 ± 0.28.
On to “TTATATATATTTAAATTTTATCTCACATATATATAT [TGCATGCA_negctrl_site275]”, for which the “gcPBM binding intensity (ln)” value was 8.89 ± 0.43.
For “ATGGATAACAATATGTGTACACATTTATATCTCCAC [XGTACX_site5457]” the value was 9.12 ± 0.31; for “AAGCATGGATATTTTACACACATTTCCACGTAACAA [CACACA_site3141]”, 9.08 ± 0.27; for “ATACATTTTTTTTATACGCACACGTCATACTTTTAA [CACACA_site1638]”, 9.35 ± 0.49.
Turning to “ATATAATAGAAGTGTACACACATATTTATGTCTGTA [CACACA_site3121]”, the “gcPBM binding intensity (ln)” value came out at 9.15 ± 0.36.
The same measure for “ACAAGACAGATATATACACACATACATACATACATA [CACACA_site7472]”: 9.43 ± 0.37.
On to “ATATTTATTTATATTACACACATGTGCAATTAAACT [CACACA_site6928]”, for which the “gcPBM binding intensity (ln)” value stood at 9.28 ± 0.47.
For “TTTAACTTATTCAATGCACACATTTTAATAAGATAT [CACACA_site1967]” the value was 8.76 ± 0.3; for “TTTCTTAAAAAAAAAAAAAAAAGAAGATAAATAAAA [CACACA_negctrl_site289]”, 8.05 ± 0.6.
As to “CTAGCAAATACATACACACACACACCGATACATATA [CACACA_site9164]”, the “gcPBM binding intensity (ln)” value was 9.87 ± 0.21.
For “ACATAATATATATATTAACACACATCCTTTTATGTA [CACACA_site8317]” the value was 9.06 ± 0.4; for “TGACTTTGTTGAATTTGTCCTCTTAACTCATAATAT [GTGCAC_negctrl_site217]”, 8.54 ± 0.53; for “TTCTGTGTCTAAAAATGTACGGGAATATATAAAAGT [XGTACX_site2090]”, 8.72 ± 0.43.
Take “TTTTTTTTTTTTAAATGTACTTATCAACTTTTATAT [XGTACX_site4641]”: the “gcPBM binding intensity (ln)” value came to 8.6 ± 0.45.
With “TTATTTTGTTTATTATGTACACAAAGACATAATAAT [XGTACX_site5648]”, the “gcPBM binding intensity (ln)” value worked out at 8.41 ± 0.38.
For “CACTTACATAATTATTGTACAGATATTATCAAATAA [XGTACX_site567]” the value was 8.54 ± 0.37; for “ACTTATATTATAAATTGTACAAATATTATATTTGGT [XGTACX_site1424]”, 8.83 ± 0.47; for “AATATATGTAAATGGACACACACATATATATATATA [CACACA_site9220]”, 9.92 ± 0.014.
For “AATAAAATAATCCAAGTGCATATGTAAAAATACATT [GTGCAC_site9576]” the value was 8.81 ± 0.43.
For “TACGTAAAAATAATACGTACATATATTTATAGAAAA [XGTACX_site4959]” the value was 8.62 ± 0.45; for “ACGGACAATACGGAAACACACAAGTTATTTTATCAT [CACACA_site7310]”, 9.04 ± 0.56.
With “AAAAAAAAAAGACACACACACACACGCATATACATA [CACACA_site7289]”, the “gcPBM binding intensity (ln)” value came to 10.18 ± 0.05.
For “GAAATACCGGAAAGCAAACACACATTTTAAAACCAT [CACACA_site3861]” the value was 9.26 ± 0.52.
The same measure for “ATATTTTTTGGAAAGTGTACAATATTATATATTAAA [XGTACX_site2163]”: 8.35 ± 0.48; for “AACCATGTTAACAATGCATGCATCACTATATAAACG [TGCATGCA_site421]”: 9.12 ± 0.38; for “ATACATATATATAGGTGTACATATAATATATATATA [XGTACX_site2228]”: 9.01 ± 0.39.
For “TTTAATTTTACATGAGAAACATATTACAATAAAATA [GTGCAC_negctrl_site606]” the value was 8.2 ± 0.37; for “CATATAAAAAAATAGACACACATTTTATATAATACG [CACACA_site1896]”, 8.91 ± 0.44; for “TCAAGTATTAAAATGGGTACATAAATATGTGTATAT [XGTACX_site5884]”, 8.79 ± 0.47.
Turning to “CTTTTTAAATTAAAATGTACAGAAAAATATTATTAT [XGTACX_site8760]”, the “gcPBM binding intensity (ln)” value was determined as 8.22 ± 0.41.
The same measure for “TATTTTTCTTTTTTTTTTTTTTTTATATTATACGTG [XGTACX_negctrl_site363]”: 8.54 ± 0.56.
Take “ATCATATGTATGCATACACACAAAAAGTTATTTATA [CACACA_site6325]”: the “gcPBM binding intensity (ln)” value was 9.11 ± 0.3.
The same measure for “GAAAATCAGTTAAACACACACATAAAAAAAAAAAAA [CACACA_site2875]”: 9.31 ± 0.59.
The same measure for “ATATATACTATATTTTAACACACAAAAAAAAAAAAT [CACACA_site8277]”: 8.86 ± 0.48; for “CTCAATATTATTACTACACACAAATTAATATTTTCC [CACACA_site55]”: 8.85 ± 0.48.
For “CTTTTTTCAAGACACACACACAAGAAAATATAAATA [CACACA_site7455]” the value was 9.36 ± 0.46; for “TGTTAATTGAATGCAATCTGAATTTTTTTACATAAT [CACACA_negctrl_site1002]”, 8.5 ± 0.45; for “TATTTGTAAATCGATACACACATATATCTTAATATA [CACACA_site4273]”, 8.8 ± 0.32.
Turning to “CGGCACGTGATATATACACACATATAGATATATACA [CACACA_site6408]”, the “gcPBM binding intensity (ln)” value is 9.27 ± 0.47.
Turning to “TGGATAATGAATGATGCACACTAAAAATATTCTACA [CACACA_site5912]”, the “gcPBM binding intensity (ln)” value is 9.02 ± 0.47.
For “AATTTTATACGATAAACATGCAAATAAATAAATAAA [TGCATGCA_site227]” the value was 8.62 ± 0.53.
For “AAAGAAAAAAAAAACACACACACACCCATTCAATAT [CACACA_site38]” the value was 10.29 ± 0.035.
On to “TTTATTATATAAACATGTACACAATTTGGTATATTC [XGTACX_site3112]”, for which the “gcPBM binding intensity (ln)” value was 8.79 ± 0.47.
The same measure for “TATAATAATATTTATTGTACAATTAGTTTAATTCAT [XGTACX_site272]”: 8.69 ± 0.45.
The same measure for “ACAGCCAATACGGAAACACACAAGTTATTTTATCAT [CACACA_site5507]”: 9.04 ± 0.49.
The same measure for “TATATGCCTATAAGAAGTACTGTGTAATGTAATATA [XGTACX_site8089]”: 8.8 ± 0.53; for “AAGAAAAATATATTTATATATATATATATTAAATAT [TGCATGCA_negctrl_site500]”: 8.6 ± 0.35; for “TAAACATAAATATGCACACATATACATATATTCATA [CACACA_site2667]”: 8.98 ± 0.38.
Consider “CTACATAATAAAAAAAGTACATTCTAATAAATTGAC [XGTACX_site4504]”, for which the “gcPBM binding intensity (ln)” value was found to be 8.71 ± 0.54.
For “ACTAATAATTTGTCGGTGCATAAAATTATTTTTATT [GTGCAC_site9840]” the value was 8.73 ± 0.36.
For AAATTATGCATCGAGGTGCGTCTTAAAATATAGTGG the value was 8.9 ± 0.3.
The same measure for “ATATAAATTCAAATTACACACATTTATTTTTTTTAC [CACACA_site53]”: 8.88 ± 0.49.
Consider “ATGATAAAATTATGTAGTACATATTTGAATGTAAAT [XGTACX_site688]”, for which the “gcPBM binding intensity (ln)” value was 8.97 ± 0.43.
Consider “ATATATGTAACATATTGTACATATATGTATGTATGT [XGTACX_site3281]”, for which the “gcPBM binding intensity (ln)” value amounted to 9.13 ± 0.46.
